Measurements published in paper PMC4336329 (PLoS ONE, 2015).
About 2,200 (0.71%) of roughly 310,000 compounds showed an effect of 50% or more. Effects have a minus sign here. Some of the results follow.

Biological target: human ether-à-go-go-related gene (hERG) potassium channel (human, UniProt Q12809)
Assay: primary screen, population patch clamp on CHO cells stably expressing hERG

Chain of human ether-à-go-go-related gene (hERG) potassium channel (Q12809 whole entry, looked up): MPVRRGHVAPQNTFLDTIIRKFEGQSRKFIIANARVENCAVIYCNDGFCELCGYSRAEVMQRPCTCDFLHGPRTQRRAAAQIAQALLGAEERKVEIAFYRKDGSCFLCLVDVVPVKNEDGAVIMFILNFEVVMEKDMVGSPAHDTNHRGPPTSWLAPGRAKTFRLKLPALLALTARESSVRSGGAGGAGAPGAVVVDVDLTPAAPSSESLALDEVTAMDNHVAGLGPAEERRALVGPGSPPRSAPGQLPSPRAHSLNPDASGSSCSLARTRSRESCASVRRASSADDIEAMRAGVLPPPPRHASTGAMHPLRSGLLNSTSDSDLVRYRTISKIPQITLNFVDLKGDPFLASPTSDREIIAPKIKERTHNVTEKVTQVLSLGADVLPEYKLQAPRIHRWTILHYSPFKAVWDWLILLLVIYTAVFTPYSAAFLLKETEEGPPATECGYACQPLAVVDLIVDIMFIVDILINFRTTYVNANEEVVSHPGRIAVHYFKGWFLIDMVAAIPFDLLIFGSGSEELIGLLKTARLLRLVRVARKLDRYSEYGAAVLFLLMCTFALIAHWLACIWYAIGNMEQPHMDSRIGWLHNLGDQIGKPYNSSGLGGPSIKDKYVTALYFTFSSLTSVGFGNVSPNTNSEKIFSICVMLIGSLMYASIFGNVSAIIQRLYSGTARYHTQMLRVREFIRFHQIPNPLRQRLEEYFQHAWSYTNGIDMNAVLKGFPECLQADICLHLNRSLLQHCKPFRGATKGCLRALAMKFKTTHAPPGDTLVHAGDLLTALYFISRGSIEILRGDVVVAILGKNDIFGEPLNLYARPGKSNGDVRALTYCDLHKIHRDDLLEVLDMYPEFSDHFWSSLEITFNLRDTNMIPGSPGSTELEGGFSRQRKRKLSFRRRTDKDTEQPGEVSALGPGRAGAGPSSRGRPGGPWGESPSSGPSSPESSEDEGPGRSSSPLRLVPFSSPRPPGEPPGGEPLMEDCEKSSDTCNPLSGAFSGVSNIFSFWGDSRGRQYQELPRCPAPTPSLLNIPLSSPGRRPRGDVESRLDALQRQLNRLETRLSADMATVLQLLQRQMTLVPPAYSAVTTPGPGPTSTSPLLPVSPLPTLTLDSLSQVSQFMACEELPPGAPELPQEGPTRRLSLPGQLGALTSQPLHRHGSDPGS

| Structure (SMILES) | hERG current change (%, negative = inhibition) at 1uM [%] |
| --- | --- |
| COc1cccc(C(=O)NNC2=C(C(=O)C(F)(F)F)CCC2)c1 | 6.8 |
| O=C(O)CSc1nnc(COc2cccc3ccccc23)n1Cc1ccccc1 | 16.3 |
| O=C(Cn1c(C(F)(F)F)nc2ccccc21)c1ccc(F)cc1 | 12.1 |
| COc1ccc(S(=O)(=O)Nc2ccc(S(=O)(=O)N3CCCC3)cc2)cc1 | 4.04 |
| COc1ccc(NC(=O)/C(C#N)=C\c2ccc(-c3cc(C(=O)O)ccc3C)o2)cc1 | 11.5 |
| Br.c1ccc(NC2=NCCCS2)cc1 | 2.35 |
| CC(C)COC(=O)Nc1nnc(SCc2ccccc2F)s1 | 7.02 |
| CC(=O)c1ccc(N2CCN(C(=O)C(=O)c3cn(CC(=O)N4CCCCCC4)c4ccccc34)CC2)cc1 | -4.98 |
| CC(=O)Nc1sc(N/N=C\c2ccc(O)cc2)nc1-c1cccs1 | 8.62 |
| Cc1ccccc1NC(=O)/C=C/c1cccc(C(F)(F)F)c1 | 8.04 |
| O=C(Nc1cccc2ccccc12)N1CCN(c2ccc(F)cc2)CC1 | 9.05 |
| COc1ccc(C(=O)CN2C(=O)NC3(CCCCCC3)C2=O)cc1 | 7.85 |
| Brc1ccc(-c2nnc3c4ccccc4nc(N4CCOCC4)n23)cc1 | 2.14 |
| O=C(Nc1ccc(Cl)cc1)[C@@H]1[C@@H]2C(=O)N(c3ccc(Cl)cc3Cl)C(=O)[C@@H]2[C@H]2C=CC=NN21 | 1.63 |
| O=C(O)c1cccc(S(=O)(=O)N(Cc2ccccc2)c2cccc(C(F)(F)F)c2)c1 | 7.65 |
| CC(C)c1ccc(C2c3[nH]c4ccccc4c3C[C@H]3C(=O)N(c4ccccc4C(=O)N4CCC[C@H]4C(=O)O)C(=O)N23)cc1 (stereo partly shown) | 7.2 |
| CCc1ccc(OCC(=O)NC(NC(=S)Nc2ccccc2OC)C(Cl)(Cl)Cl)cc1 (stereo not shown) | 8.97 |
| Cc1ccc(-n2nnnc2SCC(=O)c2cc(C)n(-c3cc(C)on3)c2C)c(C)c1 | 4.54 |
| COc1ccc(CCNc2ncnc3c2[nH]c2cc(OC)c(OC)cc23)cc1OC | 11 |
| Cc1ccc(C)c(NC(=S)NC(NC(=O)Cc2ccccc2)C(Cl)(Cl)Cl)c1 (stereo not shown) | 10.9 |
| COc1ccc(S(=O)(=O)Nc2c(O)ccc3ccccc23)cc1OC | -2.21 |
| Cn1nccc1C(=O)NC(=S)Nc1sc2c(c1C#N)CCCCC2 | 15.4 |

| Structure (SMILES) | hERG current change (%, negative = inhibition) at 1uM [%] |
| --- | --- |
| CCOC(=O)c1cnn2c(C(F)F)cc(C3CC3)nc12 | 10 |
| CCOC(=O)C1CCN(C(=O)CCc2c(C)nc3cc(-c4ccccc4)nn3c2C)CC1 | -62 |
| Cn1c(O)c(C=NCCCNC2CCCCC2)c(=O)n(C)c1=O | 7.59 |
| Cl.c1ccc2c(CN3CCCCC3)csc2c1 | 0.577 |
| N/C(=N\OC(=O)c1ccccc1F)c1ccc([N+](=O)[O-])cc1 | 11.4 |
| CCCOP(=O)(OCCC)C(Nc1ccc(C(=O)O)cc1)c1ccccc1 (stereo not shown) | 6.82 |
| Cc1ccccc1NC(=O)c1oc(=O)c2ccccc2c1-c1ccccc1 | 4.62 |
| O=C(CSC1=NCCN1)C1COc2ccccc2O1 (stereo not shown) | -9.39 |
| OC(c1ccccc1)(c1ccccc1)c1ccn[nH]1 | 8.33 |
| Cc1c(NC(=O)CSC(=S)N2CCCC2)c(=O)n(-c2ccccc2)n1C | 1.72 |
| S=c1[nH]nc(-c2ccc3ccccc3n2)n1-c1ccccc1Cl | 13.2 |
| COc1ccc(OC)c(CN2CCN(C(=O)COc3cccc(C)c3)CC2)c1.O=C(O)C(=O)O | -10.9 |
| Cc1cc(Cl)ccc1N1C(=O)CC(SCCC(=O)O)C1=O (stereo not shown) | 9.04 |
| Cc1nn(Cc2cccc(C(=O)Nc3ccn(Cc4ccccc4F)n3)c2)c(C)c1[N+](=O)[O-] | 5.76 |
| Cc1noc(C)c1C(=O)OCC(=O)Nc1c(F)cccc1F | 8.14 |
| O=C(CSc1nnc(Cn2cnc3ccccc32)o1)Nc1cccc2ccccc12 | 16.4 |
| Br.CCOCc1cn(CC(=O)c2ccc([N+](=O)[O-])cc2)c(C)nc1=N | -1.45 |
| CSC1=NCCN1C(=O)c1cccc(Br)c1 | 4.07 |
| CCOC(=O)CNC(=S)N(Cc1ccccc1)Cc1ccccc1F | 1.56 |
| COc1ccc2ccc(C(C)(C(C)=O)C(=O)OC(C)C)cc2c1 (stereo not shown) | 8.67 |
| O=C(Nc1ccccc1)/C(=C/c1cccnc1)NC(=O)c1ccco1 | -11.1 |
